Article PMC5909619
No constants are given. Whether binding was seen depends on the method and setting. In cells and extracts the contact can be indirect. Some entries that bind do so weakly or less than the wild type. Where a sequence is shown, tags or fusion partners need not be part of it.

Assays:
Test in all cases: co-IP; FLAG-Solo or its deletion mutants co-expressed with β4-YFP fragments in COS-7 cells; lysis buffer with 1% NP-40, 50 mM Tris-HCl pH 7.5, 150 mM NaCl; lysates incubated 2 h at 4°C with an anti-FLAG antibody; immunoblot with anti-FLAG and anti-GFP antibodies
[1] = target: FLAG-tagged Solo-WT (human) (UniProt Q8TER5)
[2] = target: FLAG-Solo (1058–1519) (human) (UniProt Q8TER5)
[3] = target: FLAG-Solo (330–1057) (human) (UniProt Q8TER5)
[4] = target: FLAG-Solo (1–329) (human) (UniProt Q8TER5)

Row | Binder | binding [1] | binding [2] | binding [3] | binding [4]
1 | β4 (735–1752)-YFP (domain or fragment, UniProt P16144-2 735-1752) YCACCKACLALLPCCNRGHMVGFKEDHYMLRENLMASDHLDTPMLRSGNLKGRDVVRWKVTNNMQRPGFATHAASINPTELVPYGLSLRLARLCTENLLKPDTRECAQLRQEVEENLNEVYRQISGVHKLQQTKFRQQPNAGKKQDHTIVDTVLMAPRSAKPALLKLTEKQVEQRAFHDLKVAPGYYTLTADQDARGMVEFQEGVELVDVRVPLFIRPEDDDEKQLLVEAIDVPAGTATLGRRLVNITIIKEQARDVVSFEQPEFSVSRGDQVARIPVIRRVLDGGKSQVSYRTQDGTAQGNRDYIPVEGELLFQPGEAWKELQVKLLELQEVDSLLRGRQVRRFHVQLSNPKFGAHLGQPHSTTIIIRDPDELDRSFTSQMLSSQPPPHGDLGAPQNPNAKAAGSRKIHFNWLPPSGKPMGYRVKYWIQGDSESEAHLLDSKVPSVELTNLYPYCDYEMKVCAYGAQGEGPYSSLVSCRTHQEVPSEPGRLAFNVVSSTVTQLSWAEPAETNGEITAYEVCYGLVNDDNRPIGPMKKVLVDNPKNRMLLIENLRESQPYRYTVKARNGAGWGPEREAIINLATQPKRPMSIPIIPDIPIVDAQSGEDYDSFLMYSDDVLRSPSGSQRPSVSDDTEHLVNGRMDFAFPGSTNSLHRMTTTSAAAYGTHLSPHVPHRVLSTSSTLTRDYNSLTRSEHSHSTTLPRDYSTLTSVSSHDSRLTAGVPDTPTRLVFSALGPTSLRVSWQEPRCERPLQGYSVEYQLLNGGELHRLNIPNPAQTSVVVEDLLPNHSYVFRVRAQSQEGWGREREGVITIESQVHPQSPLCPLPGSAFTLSTPSAPGPLVFTALSPDSLQLSWERPRRPNGDIVGYLVTCEMAQGGGPATAFRVDGDSPESRLTVPGLSENVPYKFKVQARTTEGFGPEREGIITIESQDGGPFPQLGSRAGLFQHPLQSEYSSITTTHTSATEPFLVDGLTLGAQHLEAGGSLTRHVTQEFVSRTLTTSGTLSTHMDQQFFQT | binds |  |  | 
2 | β4 (1121–1752)-YFP (domain or fragment, UniProt P16144-2 1121-1752) PPPHGDLGAPQNPNAKAAGSRKIHFNWLPPSGKPMGYRVKYWIQGDSESEAHLLDSKVPSVELTNLYPYCDYEMKVCAYGAQGEGPYSSLVSCRTHQEVPSEPGRLAFNVVSSTVTQLSWAEPAETNGEITAYEVCYGLVNDDNRPIGPMKKVLVDNPKNRMLLIENLRESQPYRYTVKARNGAGWGPEREAIINLATQPKRPMSIPIIPDIPIVDAQSGEDYDSFLMYSDDVLRSPSGSQRPSVSDDTEHLVNGRMDFAFPGSTNSLHRMTTTSAAAYGTHLSPHVPHRVLSTSSTLTRDYNSLTRSEHSHSTTLPRDYSTLTSVSSHDSRLTAGVPDTPTRLVFSALGPTSLRVSWQEPRCERPLQGYSVEYQLLNGGELHRLNIPNPAQTSVVVEDLLPNHSYVFRVRAQSQEGWGREREGVITIESQVHPQSPLCPLPGSAFTLSTPSAPGPLVFTALSPDSLQLSWERPRRPNGDIVGYLVTCEMAQGGGPATAFRVDGDSPESRLTVPGLSENVPYKFKVQARTTEGFGPEREGIITIESQDGGPFPQLGSRAGLFQHPLQSEYSSITTTHTSATEPFLVDGLTLGAQHLEAGGSLTRHVTQEFVSRTLTTSGTLSTHMDQQFFQT | binds |  |  | 
3 | β4 (1451–1752)-YFP (domain or fragment, UniProt P16144-2 1451-1752) SRLTAGVPDTPTRLVFSALGPTSLRVSWQEPRCERPLQGYSVEYQLLNGGELHRLNIPNPAQTSVVVEDLLPNHSYVFRVRAQSQEGWGREREGVITIESQVHPQSPLCPLPGSAFTLSTPSAPGPLVFTALSPDSLQLSWERPRRPNGDIVGYLVTCEMAQGGGPATAFRVDGDSPESRLTVPGLSENVPYKFKVQARTTEGFGPEREGIITIESQDGGPFPQLGSRAGLFQHPLQSEYSSITTTHTSATEPFLVDGLTLGAQHLEAGGSLTRHVTQEFVSRTLTTSGTLSTHMDQQFFQT | binds | no binding | binds | no binding
4 | β4 (735–1450)-YFP (domain or fragment, UniProt P16144-2 735-1450) YCACCKACLALLPCCNRGHMVGFKEDHYMLRENLMASDHLDTPMLRSGNLKGRDVVRWKVTNNMQRPGFATHAASINPTELVPYGLSLRLARLCTENLLKPDTRECAQLRQEVEENLNEVYRQISGVHKLQQTKFRQQPNAGKKQDHTIVDTVLMAPRSAKPALLKLTEKQVEQRAFHDLKVAPGYYTLTADQDARGMVEFQEGVELVDVRVPLFIRPEDDDEKQLLVEAIDVPAGTATLGRRLVNITIIKEQARDVVSFEQPEFSVSRGDQVARIPVIRRVLDGGKSQVSYRTQDGTAQGNRDYIPVEGELLFQPGEAWKELQVKLLELQEVDSLLRGRQVRRFHVQLSNPKFGAHLGQPHSTTIIIRDPDELDRSFTSQMLSSQPPPHGDLGAPQNPNAKAAGSRKIHFNWLPPSGKPMGYRVKYWIQGDSESEAHLLDSKVPSVELTNLYPYCDYEMKVCAYGAQGEGPYSSLVSCRTHQEVPSEPGRLAFNVVSSTVTQLSWAEPAETNGEITAYEVCYGLVNDDNRPIGPMKKVLVDNPKNRMLLIENLRESQPYRYTVKARNGAGWGPEREAIINLATQPKRPMSIPIIPDIPIVDAQSGEDYDSFLMYSDDVLRSPSGSQRPSVSDDTEHLVNGRMDFAFPGSTNSLHRMTTTSAAAYGTHLSPHVPHRVLSTSSTLTRDYNSLTRSEHSHSTTLPRDYSTLTSVSSHD | no binding |  |  | 
5 | β4 (1121–1450)-YFP (domain or fragment, UniProt P16144-2 1121-1450) PPPHGDLGAPQNPNAKAAGSRKIHFNWLPPSGKPMGYRVKYWIQGDSESEAHLLDSKVPSVELTNLYPYCDYEMKVCAYGAQGEGPYSSLVSCRTHQEVPSEPGRLAFNVVSSTVTQLSWAEPAETNGEITAYEVCYGLVNDDNRPIGPMKKVLVDNPKNRMLLIENLRESQPYRYTVKARNGAGWGPEREAIINLATQPKRPMSIPIIPDIPIVDAQSGEDYDSFLMYSDDVLRSPSGSQRPSVSDDTEHLVNGRMDFAFPGSTNSLHRMTTTSAAAYGTHLSPHVPHRVLSTSSTLTRDYNSLTRSEHSHSTTLPRDYSTLTSVSSHD | no binding |  |  | 
